To fix the notation:
B1: PhoQ; a variant is named by its letters at X, in order, P23837 (parent)
chain: MKKLLRLFFPLSLRVRFLLATAAVVLVLSLAYGMVALIGYSVSFDKTTFRLLRGESNLFYTLAKWENNKLHVELPENIDKQSPTMTLIYDENGQLLWAQRDVPWLMKMIQPDWLKSNGFHEIEADVNDTSLLLSGDHSIQQQLQEVREDDDDAEMTHSVAVNVYPATSRMPKLTIVVVDTIPVELKSSYMVWSWFIYVLSANLLLVIPLLWVAAWWSLRPIEALAKEVRELEEHNRELLNPATTRELTSLVRNLNRLLKSERERYDKYRTTLTDLTHSLKTPLXXLQXXLRSLRSEKMSVSDAEPVMLEQISRISQQIGYYLHRASMRGGTLLSRELHPVAPLLDNLTSALNKVYQRKGVNISLDISPEISFVGEQNDFVEVMGNVLDNACKYCLEFVEISARQTDEHLYIVVEDDGPGIPLSKREVIFDRGQRVDTLRPGQGVGLAVAREITEQYEGKIVAGESMLGGARMEVIFGRQHSAPKDE

The other results are listed elsewhere or left out.

In this test the parent is B1. Briefly: enrichment ratio after two sorts for PhoP signalling (ratio (wild type AVST 3.29)); higher = more functional. To be noted: with PhoP (E. coli).
IQKR: the enrichment ratio was no more than 0.25.

Take EEHT: the enrichment ratio was no more than 0.25.

For TNRS, the enrichment ratio was no more than 0.25.

Regarding LQPS, the enrichment ratio was no more than 0.25.

EIPQ: the enrichment ratio was no more than 0.25.

For GDGY, the enrichment ratio was no more than 0.25.

Regarding GMSK, the enrichment ratio is no more than 0.25.

Take KSKI: the enrichment ratio is no more than 0.25.

On to ACYV, for which the enrichment ratio is no more than 0.25.

HVQW: the enrichment ratio was no more than 0.25.

As for MGMA, the enrichment ratio came to 0.253.

Consider LGIE, for which the enrichment ratio was no more than 0.25.

Turning to WLPN, the enrichment ratio was no more than 0.25.

For GCLF, the enrichment ratio was 13.2.

With FQHL, the enrichment ratio is no more than 0.25.

As for KDLC, the enrichment ratio is no more than 0.25.

Consider ILSY, for which the enrichment ratio was no more than 0.25.

In the case of YDVG, the enrichment ratio is no more than 0.25.

Consider VNWQ, for which the enrichment ratio is no more than 0.25.

Turning to KVVL, the enrichment ratio is no more than 0.25.

With NGRL, the enrichment ratio was no more than 0.25.

As to WHWW, the enrichment ratio is no more than 0.25.

As to IAAW, the enrichment ratio is no more than 0.25.

In the case of EKFN, the enrichment ratio is no more than 0.25.

Regarding INRL, the enrichment ratio is no more than 0.25.

Consider DMET, for which the enrichment ratio was no more than 0.25.

Take FAWD: the enrichment ratio was no more than 0.25.

As for NQCC, the enrichment ratio is no more than 0.25.

Regarding RLMK, the enrichment ratio is no more than 0.25.

As for MPNE, the enrichment ratio was no more than 0.25.

Regarding TVAF, the enrichment ratio turned out to be 4.5.

SDHG: the enrichment ratio is no more than 0.25.

In the case of FDGM, the enrichment ratio is no more than 0.25.

For YGSV, the enrichment ratio is 0.666.

For the variant HHKC, the enrichment ratio was no more than 0.25.

In the case of NQWA, the enrichment ratio is no more than 0.25.

With ITST, the enrichment ratio is no more than 0.25.

As to MRSF, the enrichment ratio was no more than 0.25.

Regarding KDDL, the enrichment ratio is no more than 0.25.

Take HIVF: the enrichment ratio is no more than 0.25.

In the case of GHWN, the enrichment ratio was no more than 0.25.

In the case of TAIW, the enrichment ratio was no more than 0.25.

Regarding MNQE, the enrichment ratio is no more than 0.25.

Turning to ICYE, the enrichment ratio is no more than 0.25.

On to CLPW, for which the enrichment ratio was no more than 0.25.

SSNN: the enrichment ratio is no more than 0.25.

Take AMYI: the enrichment ratio was determined as 0.253.

PEYI: the enrichment ratio was no more than 0.25.

As to LLFI, the enrichment ratio is no more than 0.25.

On to MTVN, for which the enrichment ratio was no more than 0.25.

As to CHSL, the enrichment ratio is no more than 0.25.

Take TCPS: the enrichment ratio was no more than 0.25.

For PQLH, the enrichment ratio was no more than 0.25.

As for TSLW, the enrichment ratio was no more than 0.25.

Take LGIL: the enrichment ratio was no more than 0.25.

For the variant GNTN, the enrichment ratio is no more than 0.25.

As to QMRP, the enrichment ratio is no more than 0.25.

Consider SNYT, for which the enrichment ratio is no more than 0.25.

VFGK: the enrichment ratio is no more than 0.25.

On to VNKD, for which the enrichment ratio was no more than 0.25.

As for EIMC, the enrichment ratio is no more than 0.25.

For NRPW, the enrichment ratio is no more than 0.25.

As to LRQV, the enrichment ratio is no more than 0.25.

Turning to TFFD, the enrichment ratio was no more than 0.25.

For the variant DHIQ, the enrichment ratio is no more than 0.25.

As to RDQA, the enrichment ratio was no more than 0.25.

As to RIIK, the enrichment ratio is no more than 0.25.

Consider MEEY, for which the enrichment ratio is no more than 0.25.

Regarding TQTI, the enrichment ratio turned out to be 10.9.

With RCLF, the enrichment ratio is no more than 0.25.

Regarding IRRM, the enrichment ratio was no more than 0.25.

On to PNAA, for which the enrichment ratio is no more than 0.25.

On to LHAP, for which the enrichment ratio was no more than 0.25.

LAQP: the enrichment ratio was no more than 0.25.

Turning to MMYT, the enrichment ratio was no more than 0.25.

Turning to QDVN, the enrichment ratio is no more than 0.25.

For PVFG, the enrichment ratio is no more than 0.25.

Regarding FNLN, the enrichment ratio was no more than 0.25.

Turning to MGCH, the enrichment ratio was found to be 3.22.

In the case of MHPL, the enrichment ratio was no more than 0.25.

As to LREW, the enrichment ratio is no more than 0.25.

KPIA: the enrichment ratio was no more than 0.25.

MSWF: the enrichment ratio turned out to be 2.84.

As for WNRK, the enrichment ratio is no more than 0.25.

As for TIKW, the enrichment ratio was no more than 0.25.

Take VNQY: the enrichment ratio is no more than 0.25.

As for PLYY, the enrichment ratio was no more than 0.25.

Take WPGM: the enrichment ratio was no more than 0.25.

Turning to VTMT, the enrichment ratio is no more than 0.25.

Turning to KEFR, the enrichment ratio was no more than 0.25.

Consider YWRE, for which the enrichment ratio is no more than 0.25.

As for WLLC, the enrichment ratio is no more than 0.25.

On to PSAV, for which the enrichment ratio was no more than 0.25.

WDGG: the enrichment ratio was no more than 0.25.

Consider NHRG, for which the enrichment ratio is no more than 0.25.

Consider IDRM, for which the enrichment ratio is no more than 0.25.

For VGKN, the enrichment ratio was no more than 0.25.

As to CFLI, the enrichment ratio was no more than 0.25.

Regarding YALG, the enrichment ratio came to 5.75.

In the case of NKNF, the enrichment ratio was no more than 0.25.

With VTHK, the enrichment ratio was no more than 0.25.

Regarding LDYK, the enrichment ratio is no more than 0.25.

With IQIL, the enrichment ratio is no more than 0.25.

On to PHYD, for which the enrichment ratio is no more than 0.25.

Turning to SVAM, the enrichment ratio stood at 8.22.

Regarding VVKL, the enrichment ratio was no more than 0.25.

Regarding FMNI, the enrichment ratio was no more than 0.25.

For AKVT, the enrichment ratio was found to be 12.6.

Take HEIN: the enrichment ratio is no more than 0.25.

Consider SWGK, for which the enrichment ratio is no more than 0.25.

In the case of THMN, the enrichment ratio stood at 12.7.

As to GATW, the enrichment ratio was no more than 0.25.

Turning to DVAS, the enrichment ratio is no more than 0.25.

On to DFAK, for which the enrichment ratio is no more than 0.25.

Regarding AVYF, the enrichment ratio was no more than 0.25.

Take ETPG: the enrichment ratio is no more than 0.25.

With LFSC, the enrichment ratio was no more than 0.25.

As for ASCM, the enrichment ratio was 11.6.

As to MTDL, the enrichment ratio is no more than 0.25.

As for DNHC, the enrichment ratio is no more than 0.25.

In the case of VGWE, the enrichment ratio is no more than 0.25.

As to LQAK, the enrichment ratio is no more than 0.25.

For the variant INYR, the enrichment ratio was no more than 0.25.

Regarding HTKL, the enrichment ratio was no more than 0.25.

As to DDNH, the enrichment ratio is no more than 0.25.

For TYHW, the enrichment ratio is no more than 0.25.

Consider WKWD, for which the enrichment ratio is no more than 0.25.

For VNSC, the enrichment ratio is no more than 0.25.

In the case of DHFP, the enrichment ratio is no more than 0.25.

Regarding KRLW, the enrichment ratio is no more than 0.25.

On to DASY, for which the enrichment ratio was no more than 0.25.

As for KYYL, the enrichment ratio was no more than 0.25.

In the case of FNYM, the enrichment ratio was no more than 0.25.

In the case of GGVL, the enrichment ratio came to 7.68.

For the variant LTWG, the enrichment ratio is no more than 0.25.

On to GSMA, for which the enrichment ratio is 1.36.

WHAG: the enrichment ratio is no more than 0.25.

As to DHLW, the enrichment ratio is no more than 0.25.

Take YDPV: the enrichment ratio is no more than 0.25.

In the case of MFLV, the enrichment ratio is no more than 0.25.

As to SEQY, the enrichment ratio came to 4.45.

Consider MLWE, for which the enrichment ratio is no more than 0.25.

Consider SMIK, for which the enrichment ratio was no more than 0.25.

As for QISG, the enrichment ratio worked out at 4.76.

Turning to KHHV, the enrichment ratio was no more than 0.25.

For NVPH, the enrichment ratio is no more than 0.25.

For DAQA, the enrichment ratio was no more than 0.25.

Regarding LMYI, the enrichment ratio was no more than 0.25.

For the variant GQGC, the enrichment ratio was no more than 0.25.

For EDPY, the enrichment ratio was no more than 0.25.

On to VHRH, for which the enrichment ratio was no more than 0.25.

Turning to VLHC, the enrichment ratio is no more than 0.25.

For the variant TYHP, the enrichment ratio is no more than 0.25.

For the origin of these results see a collection of fitness landscapes (doi:10.1126/science.1257360).
